According to PubChem BioAssay AID2101 (National Center for Advancing Translational Sciences (NCATS), 2009):
The campaign covered roughly 330,000 compounds. About 300 (0.091%) were called active. Inconclusive results, whose numbers are uncertain, are shown with a selection of clear calls. Calls come from the whole dose curve; as a rule, active = well fitted inhibition curve with a large enough effect; inconclusive = small, poorly fitted or top-dose-only effect, or effect the other way, or another doubt; inactive = no such curve, though single readings can be large or run the other way. No potency is given beside an inconclusive call; the fits are too rough.
Potency is the fitted concentration of half-maximal effect.
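Throughout, for activity change, negative = inhibition: 0% = full enzyme activity and -100% = no enzyme basal.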

Each molecule was assayed against Lysosomal acid glucosylceramidase (Homo sapiens) (UniProt P04062) (assay: qHTS Assay for Inhibitors and Activators of N370S glucocerebrosidase as a Potential Chaperone Treatment of Gaucher Disease). Conditions: N370S GC spleen homogenate, 4MU-glucoside fluorescence; activity change, negative = inhibition: at 59.4 µM (top of the series) unless noted.
For O=C(NC(=S)Nc1cccc([N+](=O)[O-])c1)C1CCCC1, the Potency was inconclusive [activator, single point]. In the case of O=C(Nc1ccc(S(=O)(=O)Nc2nccs2)cc1)c1cccc(N2C(=O)c3ccccc3C2=O)c1, the “activity change, negative = inhibition” value is reported as inactive: -0.44%. In the case of CCOC(=O)c1c(NC(=O)CSc2nnc(-c3c[nH]c4ccccc34)n2CCOC)sc2c1CCCCC2, the Potency is reported as inconclusive [activator, partial curve]. With O=C(CN1C(=O)/C(=C/c2c(F)cccc2Cl)Oc2ccccc21)NCc1ccco1 the Potency was inconclusive [activator, partial curve]. In the case of CCOc1ccc2c(c1)c(=O)c(S(=O)(=O)c1ccc(C)cc1)cn2CC, the Potency is reported as inconclusive [activator, partial curve]. In the case of Clc1ccc2oc(-c3cccnc3)nc2c1, the “activity change, negative = inhibition” value is reported as inactive: -1.9%. In the case of CC(C)(C)n1nnnc1C(c1cccnc1)N1CCN(c2ccccc2)CC1 (stereo not drawn), the Potency is reported as inconclusive [activator, partial curve]. NC(=O)c1ccccc1OCC(=O)Nc1ccc(Cl)c(Cl)c1 was tested, and the Potency was inconclusive [activator, partial curve]. With COCCN(CCOC)Cc1c(O)ccc2c3c(c(=O)oc12)CCC3 the Potency was inconclusive [activator, partial curve]. For C=C(C)C(=O)Nc1cccc(C2=NOC3(C2)C[C@H](C(N)=O)N(C(=O)COc2ccc(Cl)cc2)C3)c1 (stereo partly drawn), the “activity change, negative = inhibition” value was inactive: -3.07%. c1ccc(-c2cnnc(N3CCCCC3)n2)cc1 was tested, and the Potency was inconclusive [activator, single point]. In the case of Cc1cccc(C2=NN(c3ccccc3)[C@@H](C(=O)N3CCOC3=O)[C@@H]2c2ccccc2)c1, the Potency is reported as inconclusive [activator, partial curve]. With Oc1ccc(/C=N/n2c(-c3ccccc3)n[nH]c2=S)cc1 the Potency was inconclusive [inhibitor, partial curve, poor fit]. In the case of Clc1ccc(C(c2ccccc2)N2CCNCC2)cc1 (stereo not drawn), the Potency is reported as inconclusive [inhibitor, full curve]. In the case of Cc1cccc(OC(=O)CN2C(=O)C3C4CCC(C4)C3C2=O)c1C (stereo not drawn), the Potency is reported as inconclusive [inhibitor, full curve, poor fit]. CCCNc1nc(Nc2ccc(C)c(Cl)c2)c2cnn(C)c2n1 was tested, and the Potency was inconclusive [inhibitor, partial curve]. For Cc1ccc(CSc2nc(-c3ccccc3)c(C#N)c(=O)[nH]2)cc1, the Potency was inconclusive [activator, single point]. With N#CC1=C(N)NC(SCC(=O)c2ccc(Cl)cc2)=C(C#N)C12CCCC2 the Potency was inconclusive [inhibitor, partial curve]. In the case of Cc1cc(=O)oc2cc(NC(=O)Cc3ccccc3[N+](=O)[O-])ccc12, the Potency is reported as inconclusive [activator, single point]. With COc1ccc(C2=NN(C(=O)c3cccs3)C(c3ccc(OC)cc3)C2)cc1 (stereo not drawn) the Potency was inconclusive [activator, partial curve]. In the case of N#Cc1c(-c2ccccc2)nc(SCC(=O)Nc2ccccc2F)[nH]c1=O, the Potency is reported as inconclusive [activator, single point]. With C/C(=N\N1CCN(C2c3ccccc3-c3ccccc32)CC1)c1cccnc1 the “activity change, negative = inhibition” value was inactive: 8.09%. For CCN(C(=O)CCN1C(=O)/C(=C/c2ccccc2)SC1=S)C1CCS(=O)(=O)C1 (stereo not drawn), the Potency was inconclusive [inhibitor, single point]. COc1cc(C=C(c2nc3ccccc3s2)c2nc3ccccc3s2)ccc1O was tested, and the “activity change, negative = inhibition” value was inactive: -4.91%. In the case of COC(=O)C1=NNC2(C)C(=O)N(c3ccc(C)cc3)C(=O)C12 (stereo not drawn), the “activity change, negative = inhibition” value is reported as inactive: 0.16%. In the case of Cc1c(O)c(CN2CCCC2)cc2c3c(c(=O)oc12)CCC3, the Potency is reported as inconclusive [activator, partial curve]. For Cc1cc(C)n2ncc(C(=O)NCCc3ccccc3)c2n1, the Potency was inconclusive [activator, partial curve]. In the case of Cc1cccc(C)c1Nc1nnc(SCc2cc([N+](=O)[O-])cc3c2OCOC3)s1, the Potency is reported as inconclusive [activator, partial curve, poor fit]. With C/C(=N/OC(=O)C1CC1c1ccccc1)c1ccccc1 (stereo not drawn) the Potency was inconclusive [activator, partial curve]. With c1ccc(COc2cccc(CNCc3cccs3)c2)cc1 the Potency was inconclusive [inhibitor, single point]. CN1CCCN(Cc2nc(-c3ccc(Cl)cc3)no2)CC1 was tested, and the “activity change, negative = inhibition” value was inactive: -1.96%. With Nc1c(C(=O)Nc2ccccc2F)sc2nc(-c3ccco3)ccc12 the Potency was inconclusive [inhibitor, full curve, poor fit]. CCSc1nnc(-c2cnn(-c3ccccc3)c2-n2cccc2)n1C was tested, and the Potency was inconclusive [inhibitor, single point]. For O=C(COC(=O)c1n[nH]c2ccccc12)NC(=O)NC1CCCC1, the activity change, negative = inhibition was inconclusive: 33.7% [activator]. In the case of CN1CCN(c2ccccc2/C=C2/C(=O)Nc3ccccc32)CC1, the Potency is reported as inconclusive [inhibitor, partial curve]. For Cc1ccc(NC(=O)Cc2cn(C)c3ccccc23)cc1F, the Potency was inconclusive [activator, partial curve]. With COc1cccc(CS(=O)(=O)c2nnnn2-c2ccccc2)c1 the “activity change, negative = inhibition” value was inactive: 9.44%. With Cc1ccc(NC(=O)C2CCCN(c3ncccn3)C2)cc1F (stereo not drawn) the Potency was inconclusive [inhibitor, single point]. With CCCCCCCC/C=C\CCCCCCCCCCCC(=O)O the “activity change, negative = inhibition” value was inactive: -4.93%. COC(=O)C1=C(C)NC2=C(C(=O)CC(C)(C)C2)C1c1cn(Cc2ccc(Br)cc2)nc1-c1ccccc1 (stereo not drawn) was tested, and the activity change, negative = inhibition was inconclusive: 33.4% [activator]. COCc1nnc(NC(=O)c2cc(Cl)ccc2OC)s1 was tested, and the “activity change, negative = inhibition” value was inactive: -8.73%. For CCOC(=O)C1CCN(c2nc(-c3ccccc3)nc3c2oc2ccccc23)CC1, the Potency was inconclusive [activator, single point]. For Nc1ccc(S(=O)(=O)NNC(=O)C(=O)NNc2ccccn2)cc1, the “activity change, negative = inhibition” value was inactive: -1.66%.
